Experimental data from PubChem BioAssay AID1468 (National Center for Advancing Translational Sciences (NCATS), 2008).
In all, about 280,000 compounds went through this assay and about 1,100 (0.39%) were called active. The inconclusive results got no clear call from the source; some entries with a clear call stand among them for comparison. Calls come from the whole dose curve; as a rule, active = well fitted inhibition curve with a large enough effect; inconclusive = small, poorly fitted or top-dose-only effect, or effect the other way; inactive = flat fitted curve, though single readings scatter. No potency is given beside an inconclusive call; the fits are too rough.

Biological target: Microtubule-associated protein tau (Homo sapiens) (UniProt P10636)
Sequence of UniProt P10636 (P10636 whole entry, looked up): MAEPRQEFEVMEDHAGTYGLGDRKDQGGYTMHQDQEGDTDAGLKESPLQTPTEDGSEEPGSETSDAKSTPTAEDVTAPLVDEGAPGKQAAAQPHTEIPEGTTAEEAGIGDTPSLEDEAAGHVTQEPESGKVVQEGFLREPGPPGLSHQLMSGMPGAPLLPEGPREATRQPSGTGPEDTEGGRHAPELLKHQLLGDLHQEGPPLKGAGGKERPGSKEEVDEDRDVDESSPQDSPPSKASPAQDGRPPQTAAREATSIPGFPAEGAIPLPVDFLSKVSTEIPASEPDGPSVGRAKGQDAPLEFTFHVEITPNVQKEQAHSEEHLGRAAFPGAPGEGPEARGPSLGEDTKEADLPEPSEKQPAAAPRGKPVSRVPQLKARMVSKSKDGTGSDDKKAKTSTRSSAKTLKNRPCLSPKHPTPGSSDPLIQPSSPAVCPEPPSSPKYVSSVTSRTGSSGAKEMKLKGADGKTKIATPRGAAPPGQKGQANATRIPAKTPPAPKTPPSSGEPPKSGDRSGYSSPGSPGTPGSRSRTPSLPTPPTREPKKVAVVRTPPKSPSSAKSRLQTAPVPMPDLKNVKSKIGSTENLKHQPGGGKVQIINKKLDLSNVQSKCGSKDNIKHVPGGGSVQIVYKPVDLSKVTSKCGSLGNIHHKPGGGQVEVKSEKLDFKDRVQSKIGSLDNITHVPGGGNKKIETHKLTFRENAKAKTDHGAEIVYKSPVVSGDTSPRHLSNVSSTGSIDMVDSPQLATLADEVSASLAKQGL
Test: qHTS for Inhibitors of Tau Fibril Formation, Fluorescence Polarization; note: nearly all actives have a fitted effect of over 55% in size
Conditions: K18 P301L tau heparin fibrillization, Alexa594 FP, 6 h; series mostly up to 57.7 µM
How it was run: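 Compound effects on tau fibrillization are measured by Alexa 594 fluorescence polarization (ex 555, em 632 nm). K18 P301L tau is used at 15 uM with 0.24 uM labeled tracer, and 20 uM heparin induces aggregation over 6 hr at 37 C.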
Potency is the fitted concentration of half-maximal effect; tags give direction and shape of the fitted curve.

SMILES	Potency
O=C(NNC(=O)c1cc(-c2cccnc2)nc2ccccc12)Nc1ccc(Cl)cc1	inconclusive [inhibitor, single point]
N#Cc1ccc(NC(=O)COC(=O)CCc2ccc(S(=O)(=O)N3CCCCC3)cc2)cc1	inconclusive [inhibitor, partial curve, poor fit]
COc1ccc(/C=N/NC(=O)c2ccc(N(C)S(=O)(=O)c3ccccc3)cc2)cc1	inconclusive [inhibitor, partial curve, poor fit]
O=C(Nc1cccc(-c2cn3cccnc3n2)c1)Nc1ccccc1F	inconclusive [inhibitor, partial curve]
CC(C)c1ccc(NC(=S)NNc2ccc(Cl)c(C(=O)O)c2)cc1	inconclusive [inhibitor, partial curve]
Cc1ccc(NC(=S)N/N=C/c2ccc([N+](=O)[O-])s2)cc1	inconclusive [inhibitor, single point]
CCCC(C)C(=O)Nc1nc(C)c(-c2csc(Nc3ccc(Cl)cc3)n2)s1 (stereo not given)	inactive
COC(=O)c1ccc(NC(=O)CSc2nnc(COc3c(C)cccc3C)o2)cc1	inconclusive [inhibitor, partial curve, poor fit]
CC(=O)Nc1ccc2nc3c(=O)n(C)c(=O)n(C)c3nc2c1	inconclusive [inhibitor, single point]
O=C(Nc1ccc([N+](=O)[O-])cc1)C1C(c2ccccc2)=C1c1ccccc1	inconclusive [inhibitor, partial curve, poor fit]
CCOc1ccc(NS(=O)(=O)c2cc(NC(=O)CCC(=O)c3cccs3)ccc2Cl)cc1	inconclusive [inhibitor, single point]
Cn1ncc2c(Nc3cccc(Cl)c3)nc(Nc3cccc(Cl)c3)nc21	active: 8.91 µM
Cc1ccc2[nH]c(=O)c(CN(CCc3ccccc3)C(=O)N3CCOCC3)cc2c1	inconclusive [inhibitor, partial curve, poor fit]
Cc1ccc(O)c(N=Cc2cccs2)c1	inconclusive [inhibitor, partial curve]
Cc1ccc(NNC(=O)c2ccno2)cc1Cl	inactive
COc1cc(NC(=O)CSc2ncnc3c2cnn3Cc2ccccc2)cc(OC)c1	inconclusive [inhibitor, partial curve]
CC1=NN(c2ccc(Cl)cc2)C(=O)C1C(c1ccccc1O)c1c(C)[nH]n(-c2ccc(Cl)cc2)c1=O (stereo not given)	inconclusive [inhibitor, partial curve, poor fit]
O=C1C2C3C=CC(CNS(=O)(=O)c4ccccc4)(O3)C2C(=O)N1c1ccc(Cl)cc1 (stereo not given)	inconclusive [activator, partial curve, poor fit]
Cn1c(=O)c2c(nc(SCC(=O)O)n2Cc2cc3c(cc2Cl)OCO3)n(C)c1=O	inactive
CCOc1ccc(/C=C(\C#N)C(=O)Nc2sc3c(c2C(=O)OC)C(C(=O)OC)CC3)cc1OC (stereo not given)	inconclusive [inhibitor, full curve]

SMILES	Potency
CCOC(=O)c1c(C)[nH]c(C)c1C(=O)CSc1nnnn1-c1ccccc1	inconclusive [inhibitor, single point]
COc1ccccc1NS(=O)(=O)c1cc(NC(=O)Nc2cccc(C)c2)ccc1N1CCCCC1	active: 28.2 µM
CCCNC(=O)CC(NS(=O)(=O)c1ccc(NC(C)=O)cc1)C(C)C (stereo not given)	inactive
COc1ccc(S(=O)(=O)NCc2ccc3c(c2)CCN3C(=O)c2ccc(C)cc2)cc1Cl	inactive
COCCCNC(=S)NCCNc1nc2cc(C)cc(C)c2cc1C#N	inactive
CC[n+]1c(/C=C2\C=C(C)CC(C)(C)C2)sc2ccccc21	inconclusive [inhibitor, partial curve, poor fit]
CC1=Nc2cccc3cccc(c23)N1	inconclusive [inhibitor, single point]
COCCn1cc(C(=O)NCc2ccco2)c2c3ccccc3n(C)c2c1=O	inconclusive [activator, partial curve]
CCOC(=O)/C(=N/Nc1ccccc1)c1csc(Nc2ccccc2)n1	inconclusive [inhibitor, single point]
O=c1/c(=C\c2cccc(O)c2)sc2nc(-c3ccccc3)c(-c3ccccc3)n12	active: 25.1 µM
CCOc1ccc2[nH]c3c(N4CCN(c5ccccn5)CC4)ncnc3c2c1	inconclusive [activator, single point]
CCOC(=O)c1oc2ccc(S(=O)(=O)n3nc(-c4cc(OC)cc(OC)c4)cc3N)cc2c1C	inconclusive [inhibitor, partial curve]
CCN(CC)c1ccc(N)cc1S(=O)(=O)Nc1ccccc1OC	inconclusive [inhibitor, partial curve]
COc1ccc(NC2=Nc3cccc4cccc2c34)cc1	inconclusive [activator, partial curve]
Cc1ccc(-c2cc(C(=O)NC3=NCCS3)c3ccccc3n2)cc1C	inconclusive [inhibitor, single point]
COC(=O)C1=C(C(=O)OC)SC(=C2C(=S)C(C)(C)N(C(=O)C3CC3)c3ccccc32)S1	inconclusive [inhibitor, full curve]
O=C(Nc1ccc(Oc2ccccc2)cc1)c1cnc2n(c1=O)CCS2	inconclusive [inhibitor, single point]
O=C(NC(=S)Nc1ccc(C(F)(F)F)cc1)c1csnn1	inconclusive [inhibitor, single point]
CC12C=C(/C=C/C=C/c3ccco3)C(C)(C1)C(/C=C/c1ccco1)CC2=O (stereo not given)	inconclusive [inhibitor, single point]
COc1ccc(-c2c(C#N)c(N)nc(Sc3ccc(Cl)cc3)c2C#N)cc1	inconclusive [inhibitor, partial curve]
